The RNAGym collection of RNA variant scans (doi:10.1073/pnas.2313332121)
Variants at the background level are over-represented here.

B1: TPR 5TU (parent)
chain: GGAUCUUCUCGAUCUAACAAAAAAGACAAAUCUGCCACAAAGCUUGAGAGCAUCUUCGGAUGCAGAGGCGGCAGCCUUCGGUGGCGCGAUAGCGCCAACGUUCUCAACUAUGACACGCAAAACGCGUGCUCCGUUGAAUGGAGUUUAUCAUG

Variants of: B1
Experiment: polymerase ribozyme fitness, log enrichment relative to wild type (log ratio); higher = more active; in vitro selection for triplet polymerase activity
Method in brief: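 Mutant libraries of both subunits of a heterodimeric triplet polymerase ribozyme were PCR-built, transcribed, and selected once in triplicate, with frozen incubation at −7 °C and capture of gel-excised extended constructs on streptavidin beads before RT-PCR. Illumina sequencing of input and output libraries was filtered to genotypes with ≥10 input reads and ≥1 read per output. Fitness is the logarithm of genotype enrichment over wild-type enrichment, using inverse-variance-weighted replicate averages. The logarithm is base 2.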

Point of comparison: C87U A120U C123G, “polymerase ribozyme fitness (log ratio)” value -1.06. Against it:
- C87G C99U C116G — lower, -3.37
- C87G C103A A107G A137C U151C — lower, ≤ -4.2
- C87G C103U — lower, ≤ -4.2
- C87G C105A — lower, ≤ -4.2
- C87G C108U A147G — lower, ≤ -4.2
- C87G C114G A137G — lower, ≤ -4.2
- C87G C123U — lower, ≤ -4.2
- C87G C132G — lower, ≤ -4.2
- C87G G88C U90C A91U U111A — lower, ≤ -4.2
- C87G G88U U148C — lower, ≤ -4.2
- C87G G136U G141C — lower, ≤ -4.2
- C87G G140A — lower, ≤ -4.2
- C87G G141U — lower, -3.61
- C87G G143A — lower, ≤ -4.2
- C87G G152A — lower, ≤ -4.2
- C87G U90C — lower, -4.07
- C87G U135C — lower, ≤ -4.2
- C87G U148G — lower, ≤ -4.2
- C87U A89U — within 0.2 log units, -1.2
- C87U A91U — lower, ≤ -4.2
- C87U C93A U148G U151G — lower, ≤ -4.2
- C87U C96A — within 0.2 log units, -1.2
- C87U C99U U101G A137C U145G — lower, ≤ -4.2
- C87U C103G A147G A150G G152U — lower, ≤ -4.2
- C87U C103G C116U — lower, -1.35
- C87U C108U U139A U146A — lower, ≤ -4.2
- C87U C116G G152U — lower, -3.11
- C87U C118U — higher, -0.642
- C87U C129G — lower, -2.63
- C87U G88A U144C — lower, ≤ -4.2
- C87U G100U C105G — lower, ≤ -4.2
- C87U G141C — lower, -1.72
- C87U U90A C118G — lower, ≤ -4.2
- C87U U90C C116A A138U — lower, ≤ -4.2
- C87U U90G C105U — lower, ≤ -4.2
- C87U U102C C116G U127G — lower, ≤ -4.2
- C87U U109C G133U — lower, ≤ -4.2
- C87U U127A — lower, -3.2
- C87U U135G — lower, ≤ -4.2
- C87U U144G — within 0.2 log units, -0.986
- G88A A113U — lower, ≤ -4.2
- G88A C93A C123U G126U G133U G140U — lower, ≤ -4.2
- G88A C93G C103G — lower, ≤ -4.2
- G88A C93G U139G A147C — lower, ≤ -4.2
- G88A C96A C103U — lower, ≤ -4.2
- G88A C96G — lower, -3.74
- G88A C105A G133A U135C — lower, ≤ -4.2
- G88A C108U — lower, ≤ -4.2
- G88A C125U G141U — lower, ≤ -4.2
- G88A G133C — lower, ≤ -4.2
- G88C A106G G126U G136C — lower, ≤ -4.2
- G88C A121U — lower, ≤ -4.2
- G88C A147C — lower, ≤ -4.2
- G88C C105U — lower, ≤ -4.2
- G88C C116U A150C — lower, ≤ -4.2
- G88C C123G U146A — lower, ≤ -4.2
- G88C G92U — lower, ≤ -4.2
- G88C G100C U139A — lower, ≤ -4.2
- G88C G117C A138U G143C — lower, ≤ -4.2
- G88C G124U G136A — lower, ≤ -4.2
- G88C G141C — lower, -3.84
- G88C U101A — lower, ≤ -4.2
- G88C U101C A113C — lower, ≤ -4.2
- G88C U130G G133C G143U A150G — lower, ≤ -4.2
- G88C U135A — lower, ≤ -4.2
- G88U A89C C123A — lower, ≤ -4.2
- G88U A91U C131U — lower, ≤ -4.2
- G88U A97C C116U — lower, ≤ -4.2
- G88U A97U U102G G117U U139G — lower, ≤ -4.2
- G88U A115C A120G — lower, -3.89
- G88U A120G — lower, ≤ -4.2
- G88U A142C — lower, ≤ -4.2
- G88U C95G — lower, -3.65
- G88U C95U A121U A122G G124A — lower, ≤ -4.2
- G88U C96A U144C U148C — lower, ≤ -4.2
- G88U C105U — lower, -3.83
- G88U C108G C118U A120U — lower, ≤ -4.2
- G88U C114A — lower, ≤ -4.2
- G88U G94U C118U — lower, ≤ -4.2
- G88U G100C U127G — lower, ≤ -4.2
- G88U G117U U139A — lower, ≤ -4.2
- G88U G126A — lower, -2.98
- G88U G143C — lower, ≤ -4.2
